Laboratory results taken from patent US20220096598A1 (BEIJING SHUANGYIN BIOTECHNOLOGY, published 2022).

Assays:
GLP1 receptor = GLP1 receptor (UniProt P43220 24-463, limits assumed); assay: cell-based or functional assay
[1] = molecular target: T1, FGF21 co-receptor (β-klotho) (UniProt Q86Z14 1-1044, limits assumed); assay: cell-based or functional assay
T1 sequence (looked up): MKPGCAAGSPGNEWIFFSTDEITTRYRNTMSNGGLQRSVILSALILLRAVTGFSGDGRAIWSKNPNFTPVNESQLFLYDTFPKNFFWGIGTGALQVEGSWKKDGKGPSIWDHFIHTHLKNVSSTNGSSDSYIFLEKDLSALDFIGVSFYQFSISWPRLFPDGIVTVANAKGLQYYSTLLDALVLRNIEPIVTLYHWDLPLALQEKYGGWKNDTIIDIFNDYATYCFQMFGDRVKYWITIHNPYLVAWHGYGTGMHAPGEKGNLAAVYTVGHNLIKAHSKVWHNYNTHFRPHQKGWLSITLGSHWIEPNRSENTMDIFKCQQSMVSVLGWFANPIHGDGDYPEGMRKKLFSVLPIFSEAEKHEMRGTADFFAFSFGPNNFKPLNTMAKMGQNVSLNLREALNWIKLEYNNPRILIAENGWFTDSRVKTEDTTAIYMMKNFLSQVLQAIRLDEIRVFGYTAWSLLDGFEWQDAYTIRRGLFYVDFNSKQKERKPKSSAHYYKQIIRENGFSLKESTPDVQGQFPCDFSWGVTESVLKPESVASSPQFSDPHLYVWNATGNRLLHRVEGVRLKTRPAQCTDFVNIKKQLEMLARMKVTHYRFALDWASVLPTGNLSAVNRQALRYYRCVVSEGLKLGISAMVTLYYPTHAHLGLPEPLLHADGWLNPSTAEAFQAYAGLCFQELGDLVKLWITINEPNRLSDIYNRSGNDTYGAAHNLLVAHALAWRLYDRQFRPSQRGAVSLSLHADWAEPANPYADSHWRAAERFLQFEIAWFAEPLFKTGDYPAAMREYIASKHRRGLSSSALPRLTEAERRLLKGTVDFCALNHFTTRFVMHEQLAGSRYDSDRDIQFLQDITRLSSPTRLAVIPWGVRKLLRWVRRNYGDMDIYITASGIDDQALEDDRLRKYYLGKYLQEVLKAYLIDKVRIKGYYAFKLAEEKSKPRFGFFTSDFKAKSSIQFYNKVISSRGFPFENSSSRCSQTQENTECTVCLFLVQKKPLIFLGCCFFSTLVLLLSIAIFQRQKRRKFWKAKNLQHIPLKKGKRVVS

B1: G-L-Fc-L-Fv5 (Fc fusion)
chain: HGEGTFTSDVSSYLEEQAAKEFIAWLVKGGGGGGGSGGGGSGGGGSA[omitted - human IgG4 Fc with S228P F234A L235A (EU numbers)]GGGGSGGGGSGGGGSDSSPLLQFGGQVRQVYLYTDDAQQTEAHLEIREDGTVGGAADQSPESLLQLKALKPGVIQILGVKTSRFLCQRPDGALYGSLHFDPEACSFRELLLEDGYNVYQSEAHGLPLHCPGNKSPHRDPAPRGPCRFLPLPGLPPALPEPPGILAPQPPDVGSSDPLSMVGGSQGRSPSYES
- EC50 (nM), luciferase expression in HEK293-GLP1R/β-klotho/CRE-Luciferase cells (GLP1 receptor): 2.46 nM
- EC50 (nM), luciferase expression in HEK293-GLP1R/β-klotho/CRE-Luciferase cells [1]: 2.46 nM

B2: G-L-Fc-L-Fv2 (Fc fusion)
chain: HGEGTFTSDVSSYLEEQAAKEFIAWLVKGGGGGGGSGGGGSGGGGSA[omitted - human IgG4 Fc with S228P F234A L235A (EU numbers)]GGGGSGGGGSGGGGSDSSPLLQFGGQVRQRYLYTDDAQQTEAHLEIREDGTVGGAADQSPESLLQLKALKPGVIQILGVKTSRFLCQRPDGALYGSLHFDPEACSFRELLLEDGYNVYQSEAHGLPLHCPGNKSPHRDPAPRGPCRFLPLPGLPPALPEPPGILAPQPPDVGSSDPLSMVGGSQGRSPSYAS
- EC50 (nM), luciferase expression in HEK293-GLP1R/β-klotho/CRE-Luciferase cells (GLP1 receptor): 3.95 nM
- EC50 (nM), luciferase expression in HEK293-GLP1R/β-klotho/CRE-Luciferase cells [1]: 3.95 nM

B3: G-L-Fc-L-Fv3 (Fc fusion)
chain: HGEGTFTSDVSSYLEEQAAKEFIAWLVKGGGGGGGSGGGGSGGGGSA[omitted - human IgG4 Fc with S228P F234A L235A (EU numbers)]GGGGSGGGGSGGGGSDSSPLLQFGGQVRQVYLYTDDAQQTEAHLEIREDGTVGGAADQSPESLLQLKALKPGVIQILGVKTSRFLCQRPDGALYGSLHFDPEACSFRELLLEDGYNVYQSEAHGLPLHCPGNKSPHRDPAPRGPCRFLPLPGLPPALPEPPGILAPQPPDVGSSDPLSMVGGSQGRSPSYAS
- EC50 (nM), luciferase expression in HEK293-GLP1R/β-klotho/CRE-Luciferase cells (GLP1 receptor): 2.87 nM
- EC50 (nM), luciferase expression in HEK293-GLP1R/β-klotho/CRE-Luciferase cells [1]: 2.87 nM

B4: G-L-Fc-L-Fv4 (Fc fusion)
chain: HGEGTFTSDVSSYLEEQAAKEFIAWLVKGGGGGGGSGGGGSGGGGSA[omitted - human IgG4 Fc with S228P F234A L235A (EU numbers)]GGGGSGGGGSGGGGSDSSPLLQFGGQVRQVYLYTDDAQQTEAHLEIREDGTVGGAADQSPESLLQLKALKPGVIQILGVKTSRFLCQRPDGALYGSLHFDPEACSFRERLLEDGYNVYQSEAHGLPLHLPGNKSPHRDPAPRGPARFLPLPGLPPALPEPPGILAPQPPDVGSSDPLSMVGGSQGRSPSYES
- EC50 (nM), luciferase expression in HEK293-GLP1R/β-klotho/CRE-Luciferase cells (GLP1 receptor): 3.25 nM
- EC50 (nM), luciferase expression in HEK293-GLP1R/β-klotho/CRE-Luciferase cells [1]: 3.25 nM
